*1 amine or outer side, *2 acyl side, *3 side chain or, on linkers, in order; H or OH if unused. Where a SMILES comes first, the peptide text is derived from it. [ ]: non-standard residue; d: D form. The star is where a group is joined. ξ: configuration not given here. Pro(3R,4S-CMe2) = CC1(C)[C@@H]2[C@@H](C(=O)O)NC[C@@H]21; ξ(3-Amino-2-oxopentanoyl) = CCC(N[*:1])C(=O)C(=O)[*:2]; Pro(trans-3-OtBu) = CC(C)(C)O[C@H]1CCN[C@@H]1C(=O)O; Nleψ(COCO) = CCCC[C@H](N[*:1])C(=O)C(=O)[*:2]; X12 = CCC[C@H](N[*:1])C(=O)C(=O)[*:2]; Chg = N[C@H](C(=O)O)C1CCCCC1; Phg = N[C@H](C(=O)O)c1ccccc1; Tle = CC(C)(C)[C@H](N)C(=O)O; ξPhg = NC(C(=O)O)c1ccccc1; X18 = CC(C)C(C)OC(=O)*; Boc = CC(C)(C)OC(=O)*
The compounds below were run against HCV NS3/NS4A protease (strain 1a) (Hepatitis C virus genotype 1a, UniProt P27958) (assay: biochemical). Conditions: Table 5; HCV NS3/NS4A protease, 30° C., pH 6.5; read-out: Ki* Range.
Protocol: Assay for HCV Protease Inhibitory Activity:
Spectrophotometric Assay Spectrophotometric assay for the HCV serine protease was performed on the inventive compounds by following the procedure described by R. Zhang et al, Analytical Biochemistry, 270 (1999) 268-275, the disclosure of which is incorporated herein by reference. The assay based on the proteolysis of chromogenic ester substrates is suitable for the continuous monitoring of HCV NS3 protease activity. The substrates were derived from the P side of the NS5A-NS5B junction sequence (Ac-DTEDWX(Nva), where X=A or chromophoric alcohols (3- or 4-nitrophenol, 7-hydroxy-4-methyl-coumarin, or 4-phenylazophenol). Presented below are the synthesis, characterization and application of these novel spectrophotometric ester substrates to high throughput screening and detailed kinetic evaluation of HCV NS3 protease inhibitors.
Protein concentrations were determined by the Biorad dye method using recombinant HCV protease standards previously quantified by amino acid analysis. Prior to assay initiation, the enzyme storage buffer (50 mM sodium phosphate pH 8.0, 300 mM NaCl, 10% glycerol, 0.05% lauryl maltoside and 10 mM DTT) was exchanged for the assay buffer (25 mM MOPS pH 6.5, 300 mM NaCl, 10% glycerol, 0.05% lauryl maltoside, 5 μM EDTA and 5 μM DTT) utilizing a Biorad Bio-Spin P-6 prepacked column.
Protease Assay: HCV protease assays were performed at 30° C. using a 200 μl reaction mix in a 96-well microtiter plate. Assay buffer conditions (25 mM MOPS pH 6.5, 300 mM NaCl, 10% glycerol, 0.05% lauryl maltoside, 5 μM EDTA and 5 μM DTT) were optimized for the NS3/NS4A heterodimer (D. L. SalI et al, ibid.)). […] Fifty μls of prewarmed protease (12 nM, 30° C.) in assay buffer, was then used to initiate the reaction (final volume 200 μl). The plates were monitored over the length of the assay (60 minutes) for change in absorbance at the appropriate wavelength (340 nm for 3-Np and HMC, 370 nm for PAP, and 400 nm for 4-Np) using a Spectromax Plus microtiter plate reader equipped with a monochrometer (acceptable results can be obtained with plate readers that utilize cutoff filters). Proteolytic cleavage of the ester linkage between the Nva and the chromophore was monitored at the appropriate wavelength against a no enzyme blank as a control for non-enzymatic hydrolysis. The evaluation of substrate kinetic parameters was performed over a 30-fold substrate concentration range (˜6-200 μM). Initial velocities were determined using linear regression and kinetic constants were obtained by fitting the data to the Michaelis-Menten equation using non-linear regression analysis (Mac Curve Fit 1.1, K. Raner). Turnover numbers (kcat) were calculated assuming the enzyme was fully active.
The resulting data were fitted using linear regression and the resulting slope, 1/(Ki*(1+[S] o/Km), was used to calculate the Ki* value.

| Ki | Structure (SMILES) |
| --- | --- |
| 1 to 100 nM | CCCC(NC(=O)[C@@H]1C2C(CN1C(=O)[C@@H](NC(=O)OC(C)(C)C)C1CCCC1)C2(C)C)C(=O)C(=O)NCC(=O)NCc1ccccc1 (stereo partly drawn) |

Same assay, conditions: Table 5; HCV NS3/NS4A protease, spectrophotometric assay, 30° C., pH 6.5; read-out: Ki* Range

| Ki | Structure (SMILES) |
| --- | --- |
| 1 to 100 nM | CC(C)[C@@H](C)OC(=O)N[C@H](C(=O)N1C[C@@H]2[C@H]([C@H]1C(=O)NC(CC1CC1)C(=O)C(N)=O)C2(C)C)C1Cc2ccccc2C1 (stereo partly drawn) |
| 101 to 1000 nM | C=CCCC(NC(=O)[C@@H]1[C@@H]2[C@H](CN1C(=O)[C@@H](NC(=O)OC(C)(C)C)C1CCC(=O)CC1)C2(C)C)C(=O)C(=O)NCC=C (stereo partly drawn) |
| > 1000 nM | CC(C)(C)OC(=O)N[C@H](C(=O)N1C[C@H]2[C@@H]([C@H]1C(=O)NC(CCC(F)F)C(=O)C(N)=O)C2(C)C)C1CCCCC1 (stereo partly drawn) |
| 1 to 100 nM | CCCC(NC(=O)[C@@H]1[C@H]2[C@@H](CN1C(=O)C(NCCC(C)c1ccccc1)C(C)(C)C)C2(C)C)C(=O)C(=O)NCC(=O)N[C@H](C(=O)N(C)C)c1ccccc1 (stereo partly drawn) |
| > 1000 nM | C=CCNC(=O)C(=O)C(CCC)NC(=O)C1C2C(CN1C(=O)C(NC(=O)OCC(C)C)C1CCCC(C(=O)NCc3ccccc3)C1)C2(C)C (stereo not drawn) |
| 101 to 1000 nM | CN(C)C(=O)[C@@H](NC(=O)CNC(=O)C(=O)C(CCc1ccccc1)NC(=O)C1[C@H]2[C@@H](CN1C(=O)C(NC(=O)OC(C)(C)C)C1CCC(F)(F)CC1)C2(C)C)c1ccccc1 (stereo partly drawn) |
| 101 to 1000 nM | C=CCNC(=O)C(=O)C(CCC)NC(=O)[C@@H]1[C@@H]2[C@H](CN1C(=O)[C@@H](NC(=O)OC(C)C(C)C)C(C)(C)C)C2(C)C (stereo partly drawn) |
| 1 to 100 nM | C[C@H]1CCC[C@@H]1OC(=O)N[C@H](C(=O)N1C[C@H]2[C@@H]([C@H]1C(=O)NC(CC1CC1)C(=O)C(N)=O)C2(C)C)C(C)(C)C (stereo partly drawn) |
| 101 to 1000 nM | C=CCC(NC(=O)[C@@H]1C2C(CN1C(=O)[C@@H](NC(=O)OC(C)(C)C)C(C)(C)C)C2(C)C)C(=O)C(=O)NCC(=O)NCCc1ccccc1 (stereo partly drawn) |

| Structure (SMILES) | Ki |
| --- | --- |
| CCC(NC(=O)[C@@H]1[C@@H]2[C@H](CN1C(=O)[C@@H](NC(=O)OC(C)(C)C)C1CCCCC1)C2(C)C)C(=O)C(=O)NCC(=O)N[C@H](C(=O)N(C)C)c1ccccc1 (stereo partly drawn) (Boc-[Chg][Pro(3R,4S-CMe2)][ξ(3-Amino-2-oxopentanoyl)]G[Phg]-NMe2) | 1 to 100 nM |
| CCC[C@H](NC(=O)[C@@H]1[C@@H]2[C@H](CN1C(=O)[C@@H](NC(=O)OC(C)C(C)C)C(C)(C)C)C2(C)C)C(=O)C(=O)NCC(=O)N[C@H](C(=O)N(C)C)c1ccccc1 (stereo partly drawn) (X18-[Tle][Pro(3R,4S-CMe2)][X12]G[Phg]-NMe2) | 1 to 100 nM |
| CCCC[C@H](NC(=O)[C@@H]1[C@@H](OC(C)(C)C)CCN1C(=O)[C@@H](NC(=O)OC(C)(C)C)C(C)(C)C)C(=O)C(=O)NCC(=O)NC(C(=O)N(C)C)c1ccccc1 (stereo partly drawn) (Boc-[Tle][Pro(trans-3-OtBu)][Nleψ(COCO)]G[ξPhg]-NMe2) | > 1000 nM |

Same assay, conditions: Table 6; HCV NS3/NS4A protease, 30° C., pH 6.5; read-out: Ki*

| Ki | Structure (SMILES) |
| --- | --- |
| 1 to 100 nM | CCC1(NC(=O)N[C@H](C(=O)N2C[C@H]3[C@@H]([C@H]2C(=O)NC(CC2CC2)C(=O)C(N)=O)C3(C)C)C(C)(C)C)CCCCC1 (stereo partly drawn) |
| 101 to 1000 nM | CCCCC(NC(=O)[C@@H]1[C@@H]2[C@H](CN1C(=O)[C@@H](NC(=O)NC(C)(C)C)C(C)(C)C)C2(C)C)C(=O)C(=O)NCC(=O)OC(C)(C)c1ccccc1 (stereo partly drawn) |
| 1 to 100 nM | CC(=O)OCC(NC(=O)N[C@H](C(=O)N1C[C@H]2[C@@H]([C@H]1C(=O)NC(CC1CCC1)C(=O)C(N)=O)C2(Cl)Cl)C1CCCCC1)C(C)(C)C (stereo partly drawn) |
| 1 to 100 nM | CC(C)(C)NC(=O)N[C@H](C(=O)N1C[C@H]2[C@@H]([C@H]1C(=O)NC(CC1CC1)C(=O)C(=O)NCC(=O)NCc1ccccc1)C2(C)C)C(C)(C)C (stereo partly drawn) |
| 101 to 1000 nM | COC[C@@H](NC(=O)N[C@H](C(=O)N1C[C@H]2[C@@H]([C@H]1C(=O)NC(CC1CCC1)C(=O)C(N)=O)C2(C)C)C(C)(C)C)C(C)(C)C (stereo partly drawn) |
